What all share (conditions): remark: other sources report otherwise
In experiment [1] the target is BKV serotype II VP1 pentamer (BK virus serotype II), P14996. Put plainly: SET (solution equilibrium titration) on VP1 pentamers.
In experiment [2] the target is BKV serotype I VP1 pentamer (BK virus serotype I), P03088. The experiment is described as above.
Experiment [3] addresses BKV serotype IV VP1 pentamer (BK virus serotype IV), P14996. Put plainly: assay and form of VP1 not given.
Experiment [4] addresses BKV serotype II VP1 pentamer (BK virus serotype II), P14996. Nature of the experiment: assay and form of VP1 not given.
The target of experiment [5] is JCV VLP (consensus) (JC virus), P03089. Nature of the experiment: SET (solution equilibrium titration) on JCV VLPs.

The source of these data is patent US20170088605A1.

B1: NEG447A (antibody, human IgG1, lambda)
heavy: QVQLQESGPGLVKPSETLSLTCTVSGGSISRDYWSWVRQPPGAGLEWIGNIYYSGSTNYNPSLKSRVTISVATNKKQFSLKLTSVTAADTAVYYCARVPGCSSTSCIDGWFDPWGQGILVTVSSASTKGPSVFPLAPSSKSTSGGTAALGCLVKDYFPEPVTVSWNSGALTSGVHTFPAVLQSSGLYSLSSVVTVPSSSLGTQTYICNVNHKPSNTKVDKRV[sequence of human IgG1 Fc omitted]
light: QSVLTQPPSVSAAPGQKVTISCSGSSSNIGNTYVSWYQQLPGTAPKLLIYDNNKRPSGIPDRFSGSKSGTSATLGITGLQTGDEADYYCGTWDSSLSAWVFGGGTRLTVLGQPKAAPSVTLFPPSSEELQANKATLVCLISDFYPGAVTVAWKADSSPVKAGVETTTPSKQSNNKYAASSYLSLTPEQWKSHRSYSCQVTHEGSTVEKTVAPTECS
Consider B1, for which the figures for the equilibrium dissociation constant (Kd) in experiment [1] and in experiment [2] were 9.6 pM and 0.9 pM, respectively. Moreover, the fold greater affinity (against NEG447) in experiment [3] was found to be 10 fold; in experiment [4], 3 fold.

B2: P8D11 (antibody, human IgG1, lambda)
heavy: QVQLVESGGTLVQPGGSLRLSCAASGFTFNNYWMTWVRQAPGKGLEWVANIKKDGSEKYYVDSVRGRFTISRDNAKNSLFLQMNSLRPEDTAVYFCATVRSGRYFALDDWGQGTLVTVSSASTKGPSVFPLAPSSKSTSGGTAALGCLVKDYFPEPVTVSWNSGALTSGVHTFPAVLQSSGLYSLSSVVTVPSSSLGTQTYICNVNHKPSNTKVDKRV[sequence of human IgG1 Fc omitted]
light: QSVLTQPPSVSVAPGKTARITCGGDNIGSRPVHWYQQKPGQAPILVVYDDSNRPSGIPERFSGSNSGNTATLTISRVEAGDEADYYCQVWSSSTDHPFGGGTKVTVLGQPKAAPSVTLFPPSSEELQANKATLVCLISDFYPGAVTVAWKADSSPVKAGVETTTPSKQSNNKYAASSYLSLTPEQWKSHRSYSCQVTHEGSTVEKTVAPTECS
For B2, the dissociation constant (Kd) (as a rule, the free concentration of one partner at which half of the binding sites on the other are occupied at equilibrium, for simple one-to-one binding) in experiment [5] was 0.436 nM.
